PubChem BioAssay (NCI)
Values joined by “and” are separate entries in the source; they are usually repeats but may differ in a detail not shown here. Equal entries are not always repeated.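 Test compounds were applied to cells in 96-well plates for 48 hours at 5 doses. GI50 = concentration required for 50% inhibition of growth. The concentration for full growth arrest is given as TGI.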

Tested on: NCI-H322M lung
Test: NCI-60 cell line screen, 48 h

| SMILES | GI50 | TGI |
| --- | --- | --- |
| CC[C@]1(O)C[C@@H]2CN(CCc3c([nH]c4ccccc34)[C@@](C(=O)OC)(c3cc4c(cc3OC)N(C)[C@H]3[C@@](O)(C(=O)OC)[C@H](OC(C)=O)[C@]5(CC)C=CCN6CC[C@]43[C@@H]65)C2)C1 | < 0.01 µM | 52.5 µM |
| O=C1c2cc(Cl)ccc2S(=O)(=O)c2c(NCCCNCCO)nc3ccccc3c21 | 6.13 µM | 19 µM |
| Oc1ccc2ccccc2c1N=Nc1nccs1 | 5.68 µM | > 90.1 µM |
| O=C1CCC(=O)N2CCCCN12 |  | > 100 µM |
| N#Cc1cc([N+](=O)[O-])ccc1NC(=O)C(=O)Nc1n[nH]c(N)n1 |  | > 100 µM |
| CN1CCN(C(=O)OCc2nc3c(N4CCOCC4)nc(Cl)nc3n2C)CC1 | 1.74 µM | 4.17 µM |
| C=CCCCCCCCCC(=O)[O][Sn]([CH2]CCC)([CH2]CCC)[CH2]CCC | 0.163 µM | 0.328 µM |
| NC(CCC(=O)NC(CSSCCCCS(=O)O)C(=O)NCC(=O)O)C(=O)O (configuration not stated) |  | > 100 µM |
| Cc1cc2c(cc1C)[n+](=O)c(C(=O)C/C(=N/NC(=O)CC#N)C(=O)Nc1ccccc1C(F)(F)F)c(C)n2[O-] |  | > 100 µM |
| Nc1cc(N)c2nc(-c3ccccc3)c(Nc3ccc(Cl)c(Cl)c3)nc2c1 | 14.5 µM | 30.2 µM |
| CCOC(=O)[C]1([Bi]([CH3])[CH3])N=NC(C(=O)OC)=C1C(=O)OC (configuration not stated) | 71.7 µM | > 100 µM |
| C/C(CC(=O)Nc1ccc(C)cc1C)=N/N=C(N)N |  | > 100 µM |
| CN1C(=O)C2(Cc3cn(C45CC67SSC(CO)(C(=O)N6C4Nc4ccccc45)N(C)C7=O)c4ccccc34)SSC1(CO)C(=O)N2C (configuration not stated) |  | 3 µM |
| O=C(Cc1ccc([N+](=O)[O-])cc1)OCC#CCOC(=O)Cc1ccc([N+](=O)[O-])cc1 |  | > 10 µM |
| O=c1c(-c2ccc(Cl)cc2)nnc2n(Cc3ccccc3)c3ccccc3n12 |  | > 100 µM |
| C=c1c(OC)c(OC)c(O)c2c1=c1cc([N+](=O)[O-])cc(OC)c1=N2 |  | > 100 µM |
| CCOn1c(C2(CC3CCN(C(=O)c4ccccc4)CC3)OCCO2)cc2ccccc21 |  | 35.4 µM |
| COc1ccc2c(c1)CN1C(=N2)CSC1c1ccccc1Cl (configuration not stated) |  | 45.2 µM |
| CC[C@@H]1CN(C)[C@H]2Cc3c([nH]c4ccccc34)C(=O)C[C@H]1C2C(=O)OC (some centres not stated) |  | > 100 µM |
| CN(C)S(=O)(=O)Nc1nnc(S(N)(=O)=O)s1 |  | > 100 µM |
| COc1cc2c(c(O)c1Br)C(=O)c1c(O)cc(C[C@H](C)O)cc1[C@H]2[C@H]1c2cc(C[C@H](C)O)cc(O)c2C(=O)c2c1cc(OC)c(Br)c2O | 15.1 µM and 27.3 µM | 67.5 µM and > 100 µM |
| COc1cc(/C=C\C(=O)O)ccc1OCc1ccccc1 |  | > 100 µM |
| Cc1ccc(NC(=O)c2cccc(N(C)C)c2)cc1NC(=O)c1ccc(O)cc1 | > 74.6 µM | > 100 µM |
| Clc1ccc(OCc2nnc(CCCCCCCCc3nnc(COc4ccc(Cl)cc4)n3Nc3ccccc3)n2Nc2ccccc2)cc1 |  | > 100 µM |
| COc1cc(CN2CCCCC2)cc2cc(C(=O)O)c(=O)oc12 |  | > 100 µM |
| O=C(Nc1cccc(O)c1)C(=O)C(C(=O)c1ccccc1F)C1OC(=O)c2ccccc21 (configuration not stated) |  | 57.3 µM |
| N#Cc1ccc(O)c(C2=NCC(c3cccc(Oc4ccccc4)c3)O2)c1 (configuration not stated) | 2.02 µM | > 100 µM |
| COc1ccc(/C=C/c2nccc3ccccc23)cc1OC |  | > 10 µM |
| O=C1Nc2c(C(F)(F)F)cccc2[C@]1(c1ccc(O)cc1)c1ccc(OC(F)(F)F)cc1 | 7.5 µM | 20.3 µM |
| COc1cc(C2=C(c3ccccc3)COC2=O)cc(OC)c1OC | 6.46 µM | > 100 µM |
